The series concerns ATP. As to the kind of experiment: switch fluorescence ratio, 500 uM ATP over buffer (Cy3 cluster intensity, sum of 5 cycles each) (fold (ratio)); higher = stronger signal-on switching upon ATP binding; sequences stand for … in TCGTCGGCAGCGTCAGATGTGTATAAGAGACAGTTTTTTTTTTTTTTTTTTTTTTTTT…TC. The settings on record: aptamer strand: ATP DNA aptamer (quencher-CACCTGGGGGAGTATTGCGGAGGAAGG + anchor), 100 nM annealed; ATP concentration: 500 uM; one replicate. The method in brief: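 Switching-strand clusters labelled with Cy3 on a modified Illumina MiSeq flow-cell were annealed to 100 nM quencher-labelled ATP aptamer, imaged in selection buffer, and re-imaged after 15 min with 500 uM ATP at 22 °C. This was done over five cycles with NaOH stripping and re-annealing in between. The fluorescence ratio is summed target-cycle over summed buffer-cycle Cy3 intensity per cluster, averaged per switch-domain sequence, excluding clusters outside 100-1000 RFU.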

Sequences with one replicate were seen in a single cluster, so their values are uncertain.
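Note: ATP exposure 15 min at 22 °C before imaging.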

With ACGAGTAACC, the switch fluorescence ratio is 1.01.

Consider TAGTGTCGCG, for which the switch fluorescence ratio was determined as 1.01.

In the case of TATAGAGCTG, the switch fluorescence ratio was found to be 0.864.

As to CGCGATTTTC, the switch fluorescence ratio was 1.51.

With TTTATCCAGC, the switch fluorescence ratio was determined as 1.03.

For CACCGTTAGA, the switch fluorescence ratio was 1.05.

Regarding CGACACCGAA, the switch fluorescence ratio amounted to 1.04.

For the sequence CGCAACTCTG, the switch fluorescence ratio is 1.69.

As for GACTGTCCGG, the switch fluorescence ratio turned out to be 0.969.

With CATGTTATCA, the switch fluorescence ratio was found to be 0.981.

In the case of TGAACCCTGA, the switch fluorescence ratio was 1.02.

On to ACCGTAAAGC, for which the switch fluorescence ratio is 1.43.

For AGGAAAATAA, the switch fluorescence ratio was found to be 1.03.

For the sequence CCATTTCGCT, the switch fluorescence ratio came out at 1.07.

Regarding CGATTGATAC, the switch fluorescence ratio came out at 1.86.

For GGTTGATTAC, the switch fluorescence ratio was found to be 1.01.

On to GTCGGAACGG, for which the switch fluorescence ratio worked out at 1.05.

GGGGAATATT: the switch fluorescence ratio amounted to 0.981.

Take TAGAAGCGGA: the switch fluorescence ratio is 0.996.

As to ACTCGTGTGT, the switch fluorescence ratio amounted to 1.03.

In the case of TGTTCGGTGG, the switch fluorescence ratio is 1.04.

In the case of GTTGTTGTGT, the switch fluorescence ratio stood at 1.

On to ACATGTCCAG, for which the switch fluorescence ratio was 0.992.

As to AGGTTACTTG, the switch fluorescence ratio came to 1.01.

As for TCCTCTGAGT, the switch fluorescence ratio was 1.44.

With TAATAACGAC, the switch fluorescence ratio was found to be 1.07.

Regarding GCAATTGGCG, the switch fluorescence ratio was determined as 0.982.

As for TTACCGTAGG, the switch fluorescence ratio worked out at 0.995.

Regarding AGTAGGCTGT, the switch fluorescence ratio came to 1.

With CAGCACGGGT, the switch fluorescence ratio amounted to 0.999.

For TGATTTCTGA, the switch fluorescence ratio is 0.99.

As to TTTTAGAGG, the switch fluorescence ratio was determined as 0.978.

Consider ACAAGAGTAT, for which the switch fluorescence ratio amounted to 0.998.

In the case of CCTGCCGTAC, the switch fluorescence ratio is 3.38.

Turning to ACCGTAGGCA, the switch fluorescence ratio is 1.03.

As for CGCGAAGAG, the switch fluorescence ratio was determined as 1.04.

For CAGGAAGTCC, the switch fluorescence ratio was 1.

As to TCCCGCTACC, the switch fluorescence ratio worked out at 3.48.

For TCATTAGATG, the switch fluorescence ratio was 0.968.

On to CTATCCTGCT, for which the switch fluorescence ratio amounted to 0.986.

In the case of CGAGGAGAGC, the switch fluorescence ratio came to 1.03.

In the case of GGCCACTCGC, the switch fluorescence ratio was found to be 1.02.

With ACGTTAGTAG, the switch fluorescence ratio worked out at 0.949.

Turning to CCTAGTTGAC, the switch fluorescence ratio was 1.14.

In the case of TTAAACCGAG, the switch fluorescence ratio came out at 1.8.

For AAAAGTCCTC, the switch fluorescence ratio was 1.07.

For CCTGGTTATG, the switch fluorescence ratio is 1.01.

On to GTGGACAATT, for which the switch fluorescence ratio was determined as 0.974.

For TAAGACCAGA, the switch fluorescence ratio came to 0.99.

In the case of GCTAGTTCGG, the switch fluorescence ratio stood at 0.941.

For the sequence ATTAAGGCTG, the switch fluorescence ratio came to 0.998.

Regarding TAAGTAGGTT, the switch fluorescence ratio came out at 0.986.

TTTGGTACGA: the switch fluorescence ratio is 0.986.

With GGTGCATTAC, the switch fluorescence ratio came to 6.43.

In the case of TGAGCAAAGA, the switch fluorescence ratio came out at 1.04.

On to ATGGATGTCC, for which the switch fluorescence ratio was 1.05.

Take AAAGAGGGAG: the switch fluorescence ratio amounted to 0.927.

Consider AGGGCGCCAC, for which the switch fluorescence ratio was 0.979.

With GCGAGTAGTT, the switch fluorescence ratio turned out to be 0.973.

Regarding ACGCAGACGC, the switch fluorescence ratio came to 2.28.

Regarding TTTTCCATAT, the switch fluorescence ratio is 1.03.

Take ATAGTTAATA: the switch fluorescence ratio was found to be 0.999.

For TTTTACCGCG, the switch fluorescence ratio was determined as 1.02.

GGACTTATAG: the switch fluorescence ratio was 1.03.

Regarding GGCGGCCTAC, the switch fluorescence ratio is 1.01.

As for CAACCGCTGT, the switch fluorescence ratio is 1.58.

Take CCTAAAGTGT: the switch fluorescence ratio was found to be 1.06.

As for GCGGAGATGA, the switch fluorescence ratio worked out at 1.04.

With CTCTAATCAG, the switch fluorescence ratio was determined as 1.

Regarding CACAGGGACA, the switch fluorescence ratio turned out to be 1.19.

For the sequence ATCTTCAGCA, the switch fluorescence ratio is 1.09.

On to AGATTTTATC, for which the switch fluorescence ratio came out at 1.03.

TTGGTGTAGA: the switch fluorescence ratio is 1.07.

On to TGAGACCCGT, for which the switch fluorescence ratio stood at 1.03.

With AGGAAACCGA, the switch fluorescence ratio amounted to 1.45.

With TCCCAGAACT, the switch fluorescence ratio came out at 0.99.

As for GGGTCCAGAC, the switch fluorescence ratio was determined as 1.02.

Consider ATCAACATG, for which the switch fluorescence ratio was 1.07.

Consider TCTATATAGG, for which the switch fluorescence ratio was found to be 0.978.

In the case of ATTAAGGGAT, the switch fluorescence ratio came out at 1.02.

TAGATCGGGA: the switch fluorescence ratio was found to be 1.01.

Take GTGGCACCTC: the switch fluorescence ratio came to 0.99.

In the case of AATTATGCTG, the switch fluorescence ratio amounted to 1.03.

With CTAAGAGTTT, the switch fluorescence ratio came out at 1.01.

As to CGGTGATAG, the switch fluorescence ratio is 1.01.

GACCTTGAAG: the switch fluorescence ratio worked out at 0.979.

Regarding TAGCGGTCGT, the switch fluorescence ratio worked out at 1.01.

On to CCCTAGTAAT, for which the switch fluorescence ratio was found to be 2.

Consider ATTGTTTGGT, for which the switch fluorescence ratio is 0.974.

As to ACACTCAATG, the switch fluorescence ratio was 1.02.

On to GGATCTAAG, for which the switch fluorescence ratio came out at 1.01.

For the sequence CTAGACATGA, the switch fluorescence ratio is 1.01.

Regarding CTCTCAGGG, the switch fluorescence ratio is 1.08.

Turning to TCGCACGAAC, the switch fluorescence ratio turned out to be 1.59.

As to ATACGAGCCT, the switch fluorescence ratio came to 1.28.

In the case of CCCGAGCCAG, the switch fluorescence ratio turned out to be 1.06.

GCATGCGGCA: the switch fluorescence ratio was 1.05.

For CATTTCCCGG, the switch fluorescence ratio worked out at 1.04.

Regarding GAGGGCTAGA, the switch fluorescence ratio is 0.932.

In the case of CGCGACGATG, the switch fluorescence ratio came to 1.03.

TAGTTTATG: the switch fluorescence ratio is 1.02.

With AACTCTCATA, the switch fluorescence ratio is 0.992.

For TTGTTGCAT, the switch fluorescence ratio was 1.03.

Regarding AGGATCATTA, the switch fluorescence ratio is 0.976.

On to ACAATCTTTT, for which the switch fluorescence ratio worked out at 1.

On to ACATACTCTT, for which the switch fluorescence ratio amounted to 1.27.

As for CTCTAAATTG, the switch fluorescence ratio turned out to be 1.01.

Turning to GGTACGTACG, the switch fluorescence ratio was determined as 1.53.

As to GGGGAGCCT, the switch fluorescence ratio turned out to be 0.999.

On to CGCACCATCA, for which the switch fluorescence ratio came out at 1.01.

GATGCCCTCG: the switch fluorescence ratio is 1.

Turning to TGGGACATA, the switch fluorescence ratio stood at 1.02.

Turning to GCACGCTACT, the switch fluorescence ratio is 1.74.

In the case of ACCTTGGTGC, the switch fluorescence ratio worked out at 1.16.

As to AATGAAAACT, the switch fluorescence ratio was 1.02.

TGGCCCGAGA: the switch fluorescence ratio stood at 1.02.

As for CTAACTATGG, the switch fluorescence ratio is 0.963.

Regarding CATCTCCGTT, the switch fluorescence ratio was 1.21.

TACCGGCAGC: the switch fluorescence ratio was 1.12.

AAGCAGTGA: the switch fluorescence ratio was found to be 0.986.

The values above are taken from the supplement of paper PMC10126150.
